The text below walks through data of the supplement of paper PMC8674133.

Recombinant human monoclonal antibodies (heavy:light variable regions). ELISA EC50 on the named antigen, from 10 µg/ml down; IC50 / IC90 against spike pseudovirus on 293T-ACE2 cells, 48 h; lower = stronger. Calls: IC50 above 1,000 ng/ml = non-neutralizing; EC50 above 2,000 ng/ml = non-binder. The source prints 1000 for neutralization that was not reached; it is given as >1000 ng/ml. A few antibodies were first reported in earlier work of the same group.

Test [1] has as its target SARS-CoV-2 Wuhan-Hu-1 spike pseudovirus. Kind of test: pseudovirus neutralization IC50; higher = weaker neutralization. As for the experimental part:
(§1)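 Single-round luciferase reporter pseudovirus mixed with antibody dilutions and put on 293T-ACE2 cells for 48 h; signal relative to no-antibody wells, four-parameter fit.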

For test [2] the target is unchanged. As to the kind of experiment: pseudovirus neutralization IC90; higher = weaker neutralization. The protocol:
as §1

For test [3], the target named is SARS-CoV-2 Wuhan-Hu-1 spike receptor-binding domain. Kind of test: ELISA binding EC50; higher = weaker binding; ELISA of recombinant human antibody on coated antigen, from 10 µg/ml in fourfold dilutions; four-parameter fit. A general note: ELISA stands for enzyme-linked immunosorbent assay.

B1: C1382 (protein)
chain 1: QLQLQESGPGLLKPSETLFLTCTVSGASISSSTYYWGWIRQPPGKGLEWIGSIYYSGSTYYNPSLKSRVTISVDTSKNQFSLKLSSVPAADTAVYYCARLVRHFGSRGFGAFDYWGQGTLVTVSS
chain 2: QSALTQPASVSGSPGQSITISCTGTSSDVGGYDYVSWYQQHPGKAPKLMIYEVSNRPSGVSNRFSGSKSGNTASLTISGLQAEDEADYYCSSYTTSVLFGGGTKLTVL
For the molecule B1, the “pseudovirus neutralization IC50” value in test [1] was > 1 µg/mL. Also, the “pseudovirus neutralization IC90” value in test [2] was > 1 µg/mL. Moreover, in test [3], the “ELISA binding EC50” value turned out to be 0.00179 µg/mL.

B2: C1379 (protein)
chain 1: VQLVESGGGVVQPGRSLRLSCAASGFTFSSYGMHWVRQAPGKGLDWVAIISYDGSKKYYADSVKGRVTISRDNSKNTLYLQMNSLRTEDTAVYYCAKDAALYYDLWSGYNYFDYWGQGTLVTVSS
chain 2: DIQMTQSPSSLSASVGDRVTITCRASQGISNSLAWYQQKPGKAPKVLLYAASRLESGVPSRFSGSGSGTDYTLTISSLQPEDFATYYCQQYYSTPRTFGQGTKVEIK
For B2, in test [1], the “pseudovirus neutralization IC50” value was > 1 µg/mL. Besides, the “pseudovirus neutralization IC90” value in test [2] was > 1 µg/mL. The “ELISA binding EC50” value in test [3] stood at 0.00403 µg/mL.

B3: C1373 (protein)
chain 1: QVQLQQWGAALLRPSETLSRTCAVYGGSFSGYYWSWIRQPPGKGLEWIGEINHSGSTNYNPSLKSRVTISVDTSKNQFSLVLSSVTAADTAVYYCARGRVFCTSTSCSFDYWGRGTLVTVSS
chain 2: DIVMTQSPDSLAVSLGERATINCKSSQSLLYSSNNKNFLAWYQQKPGQPPKLLIYWASTRESGVPDRFSGSGSGTDFTLTISSLQAEDVAVYYCQQYYSSPYTFGQGTKLEIK
Turning to B3, the “pseudovirus neutralization IC50” value in test [1] was > 1 µg/mL. Further, the “pseudovirus neutralization IC90” value in test [2] was > 1 µg/mL. In addition, in test [3], the “ELISA binding EC50” value was 0.00819 µg/mL.

B4: C1355 (protein)
chain 1: QLQLQESGPGLVKPSETLSLTCTVSGGSISSGSYYWGWIRQPPGKGLEWIGSIFYSGITYYNSSLKSRVTISVDTSKNQFSLKVTSVTAADTAVYYCARHVRVDYDWDYWGQGTLVTVSS
chain 2: QSALTQPASVSGSPGQSITISCTGSSSDVGGYNLVSWYQQHPGKAPKLMIYEATKRPSGVSNRFSGSVSGNTASLTISGLRAEDEADYYCCSYAGIWLFGGGTKLTVL
As to B4, the “pseudovirus neutralization IC50” value in test [1] is > 1 µg/mL. Further, in test [2], the “pseudovirus neutralization IC90” value was > 1 µg/mL. For the same molecule, in test [3], the “ELISA binding EC50” value amounted to 0.00262 µg/mL.

B5: C1292 (protein)
chain 1: QVQLVQSGAEVKKPGASVKVSCKASENTFSNHYMHWVRQAPGQGLEWMGIINPSAGSTTYAQKFQGRVTMTGDTSTSTVYMELSSLRSEDTAVYYCARDVVFVPAASGMDVWGQGTTVTVSS
chain 2: IQMTQSPSSLSASVGDRVTITCRASQGIRNDLGWYQQKPGKAPKLLIYAASSLQSGVPSRFSGSGSGTDFTLTISSLQPEDFATYYCLQDYNYPWTFGQGTKVEIK
On to B5, for which the “pseudovirus neutralization IC50” value in test [1] was > 1 µg/mL. In addition, the “pseudovirus neutralization IC90” value in test [2] was > 1 µg/mL. Besides, the “ELISA binding EC50” value in test [3] was 0.00329 µg/mL.

B6: C1384 (protein)
chain 1: EVQLVESGGGLVQPGGSLRLSCTASGLTVSSNYMSWVRQAPGKGLEWVSVIYSGGSTFYADSVKGRFTISRDNSKNTLFLQMNSLRAEDTAVYYCARDVYEGAFDIWGQGTMVTVSS
chain 2: DIQLTQSPSFLSASVGDRVTVTCRASQGISNYLAWYQQKPGKAPKLLIYAASTLQSGVPSRFSGSGSGTEFTLTISSLQPEDFATYYCQQLSTYPPRSSFGQGTKLEIK
Consider B6, for which the “pseudovirus neutralization IC50” value in test [1] stood at 0.00625 µg/mL. Also, the “pseudovirus neutralization IC90” value in test [2] came to 0.0964 µg/mL. Also, the “ELISA binding EC50” value in test [3] turned out to be 0.00109 µg/mL.

B7: C1381 (protein)
chain 1: EVQLVESGGGLVQPGGSLRLSCAASGFTFRSYDMHWVRQVIGKGLEWVSAIGTAGDTFYPDSVKGRFTISRENAKNSLYLQMNSLRAGDTAVYYCARGPRGYYDRTGHFYRNWYFELWGRGTLVTVSS
chain 2: QSALTQPASVSGSPGQSITISCTGTSSDVGGYNYVSWYQHHPGKAPKLMIYEVSNRPSGVSNRFSGSKSGNTASLTISGLQAEDEADYFCSSYTTSITLVLFGGGTKLTVL
In the case of B7, in test [1], the “pseudovirus neutralization IC50” value was 0.108 µg/mL. The “pseudovirus neutralization IC90” value in test [2] was > 1 µg/mL. In test [3], the “ELISA binding EC50” value worked out at 0.00207 µg/mL.

B8: C2018 (protein)
chain 1: QVQLVESGGGLVKPGGSLRLSCAASGFTFSDYYMTWIRQAPGKGLEWVSYISSSGSTIYYADSVKGRFTISRDNAKNSLYLQMNSLRAEDTAVYYCARDSAGNWFDSRHYGMDVWGQGTTVTVSS
chain 2: DIQMTQSPSSLSASVGDRVTITCRASQGISNYLAWYQQKPGKVPKLLIYAASTLQSGVPSRFSGSGSGTDFTLTISSLQPEDVATYYCQKYNSARFTFGPGTKVDIK
With B8, the “pseudovirus neutralization IC50” value in test [1] is 0.16 µg/mL. Further, in test [2], the “pseudovirus neutralization IC90” value was > 1 µg/mL. The “ELISA binding EC50” value in test [3] turned out to be 0.00265 µg/mL.

B9: C1380 (protein)
chain 1: QLQLQESGPGLVKPSETLSLTCTVSGGSISSSTYYWGWIRQPPGKGLEWIGSIYYSGSTFYNPSLKSRVTISVDTSKNQFSLKLNSVTAADTAVYYCASQFVGYSGWYLGNNWFDSWGQGTLVTVSS
chain 2: QSVLTQPPSVSGAPGQRVTISCTGSSSNIGAVYDVQWYQHLPGTAPKLLIYGNRYRPSGVPDRFSGSKSGTSASLAITGLQAEDEADYYCQSFDNSLSGSVFGGGTKLTVL
Regarding B9, the “pseudovirus neutralization IC50” value in test [1] came out at 0.00642 µg/mL. Besides, in test [2], the “pseudovirus neutralization IC90” value was 0.0631 µg/mL. Further, in test [3], the “ELISA binding EC50” value amounted to 0.00202 µg/mL.

B10: C1293 (protein)
chain 1: EVQLVESGGGLVQPGRSLRLSCAASGFTFEDYAMHWVRQAPGKGLEWVSGISWNSGTIDYADSVKGRFTISRDNAKNSLYLQMNSLRAEDTALYHCAKVHGSGTYLRGVFDVWGQGTMVTVSS
chain 2: EIVMTQSPATLSVSPGERASLSCRASQSVSSNLAWFQQKPGQAPRLLIYGTSTRATGIPARFSGSGSGTVFTLTISSLQSEDFAVYFCQLYNYWPPALSFGGGTKVEIK
On to B10, for which the “pseudovirus neutralization IC50” value in test [1] is > 1 µg/mL. The “pseudovirus neutralization IC90” value in test [2] was > 1 µg/mL. Moreover, the “ELISA binding EC50” value in test [3] is 0.00204 µg/mL.

B11: C1385 (protein)
chain 1: EVQLVESGGGLVQPGRSLRLSCAASGFTFEDYAMHWVRLAPGKGLEWVSGISWNSASMGYADSVKGRFTISRDNAKNSLYLQMSSLRTEDTALYYCTKARVTTAMVLTHFDYWGQGTLVTVSS
chain 2: EIVMTQSPATLSVSPGERATLSCRASQSVSSNLAWYQHKPGQAPRLLIYGASTRATGIPARFSGSGSGTEFTLTISSLQSEDFAVYYCQQYNNWPPKLTFGGGTKVEIK
As for B11, in test [1], the “pseudovirus neutralization IC50” value is > 1 µg/mL. Also, the “pseudovirus neutralization IC90” value in test [2] is > 1 µg/mL. Further, in test [3], the “ELISA binding EC50” value stood at 0.0039 µg/mL.

B12: C1383 (protein)
chain 1: QLQLQESGPGLVKPSETLSLTCTVSGGSISSSSYYWGWIRQPPGKGLEWIGSIYYSGSTYYNPSLKSRVTISVDTSKNQFSLKLSSVTAADTAVYYCARLVRVFGSGYSRTFDYWGQGTLVTVSS
chain 2: QSALTQPRSVSGSPGQSVTISCTGTSSDVGGYNYVSWYQQHPGKAPKLMIYDVTKRPSGVPDRFSGSKSGNTASLTISGLQGEDEADYYCCSFAGTCLFGTGTKVTVL
As to B12, in test [1], the “pseudovirus neutralization IC50” value is > 1 µg/mL. The “pseudovirus neutralization IC90” value in test [2] was > 1 µg/mL. Further, the “ELISA binding EC50” value in test [3] stood at 0.00264 µg/mL.

B13: C1357 (protein)
chain 1: QVQLVQSGAEVKKPGASVKVSCKASGYTFTNHYMHWVRQAPGQGLEWMGIINPSGGSTSYAQKFQGRVTMTRDTSTNTVYMELSSLRSDDTAVYYCARDQGIIVVISGGLDYWGQGTLVTVSS
chain 2: QSALTQPRSVSGSPGQSVTISCTGTSSDVGGYNYVSWYQEHPGKAPKLMIYDVNKRPSGVPDRFSGSKSGNTASLTISGLQAEDEADYYCCSYAGSYTVVVFGGGTKLSVL
As for B13, the “pseudovirus neutralization IC50” value in test [1] is > 1 µg/mL. Also, the “pseudovirus neutralization IC90” value in test [2] was > 1 µg/mL. For the same molecule, the “ELISA binding EC50” value in test [3] came to 0.00611 µg/mL.

B14: C1388 (protein)
chain 1: QVQLQESGPGLVKPSETLSLTCTVSGGSISGYYWAWIRQPPGKGLEWVGDIYSSGSTNYSPSLKSRLSISVDTSKNIFSLRLSSVSVADTAIYYCARHTNRRLSFPYFDYWGRGTLVTVSS
chain 2: EIVLTQSPATLSLSPGERATLSCRASQSINSQLAWYQQKPGQAPRLLIYDASNRVTGIPARFSGSGSGTDFTLTISSLEPEDFADYYCQQRSKWPPGITFGQGTRLEIK
Regarding B14, the “pseudovirus neutralization IC50” value in test [1] was > 1 µg/mL. In addition, the “pseudovirus neutralization IC90” value in test [2] is > 1 µg/mL. Besides, the “ELISA binding EC50” value in test [3] was > 10 µg/mL.

B15: C1287 (protein)
chain 1: EVQLVESGGGLVQPGGSLRLSCVASGITVSSNYMSWVRQAPGKGLEWVSVIYSGGSTFYADSVKGRFTISRDNSKNTLFLQMNSLTAEDTALYYCARDLHIYGLDCWGQGTLVTVSS
chain 2: DIQLTQSPSFLSASVGDRVTITCRASQGISNYLAWYQQRPGKAPKLLIYAASTLQSGVPSRFSGSASGTEFTLTISSLQPEDFATYYCQHLNSYPPVTFGGGTKVEIK
Consider B15, for which the “pseudovirus neutralization IC50” value in test [1] worked out at 0.00965 µg/mL. Moreover, the “pseudovirus neutralization IC90” value in test [2] turned out to be 0.0337 µg/mL. The “ELISA binding EC50” value in test [3] came out at 0.00229 µg/mL.

B16: C1353 (protein)
chain 1: QVQLVQSGAEVKKPGASVKVSCKASGYTFTGNYIHWVRQAPGQGLEWVGWINPNSGAANYAQKFQGRVTMTRDTSMSTAYMEVSRLRSDDTAMYYCARTYFYDRSGLPGDYWGQGTLVTVSS
chain 2: QSALTQPASVSGSPGQSITISCTGTNSDVGTYNYVSWYQQHPGKAPKLIIYEVTNRPSGVSNRFSGSKSANTASLTISGLQAEDEADYYCSSYMSNTLYVFGTGTKVSVL
For B16, in test [1], the “pseudovirus neutralization IC50” value is > 1 µg/mL. In test [2], the “pseudovirus neutralization IC90” value is > 1 µg/mL. Moreover, in test [3], the “ELISA binding EC50” value is > 10 µg/mL.
